# This is one part of the list. Read counts after selection give these values, which scatter widely.
# Test system: SARS-CoV-2 3CLpro (nsp5)
# Test: substrate phage enrichment score (protease-eluted vs HEPES control, +1 offset) (ratio); higher = better cleaved substrate
# Conditions: selection round: 4; protease elution time: 15 min
# Method: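 Random heptapeptide substrate phage display (M13 pIII fusion, heptapeptide between an N-terminal biotinylated AviTag GLNDIFEAQKIEWHE and pIII; phages immobilised on streptavidin) eluted by cleavage with 50 nM protease in 20 mM HEPES at 37 °C. Selected phages were NGS sequenced, and the enrichment score is (reads in protease sample + 1)/(reads in HEPES blank-selection control + 1).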
row,Substance,substrate phage enrichment score
1,LLNLPND,7
2,RQPDCTQ,0.148
3,NCSAPRS,0.2
4,SNQSLSC,2.14
5,TTAHHHH,0.292
6,ASRAGCG,> 32
7,EGTFNLD,0.281
8,GATAHHH,0.211
9,PPAHHHH,1.09
10,DRRDKLV,1.73
11,TKSTLSG,0.688
12,WKKTHLS,> 48
13,HCITVTR,14.7
14,GNRAEMS,2.29
15,EHPVWQE,2.25
16,TPGAMKS,> 50
17,MSAAHHH,0.74
18,VCGEAYA,6.67
19,YPTNGNH,2.43
20,ECSKHVT,> 22
21,KASHSRA,0.069
22,SPSAHHH,0.3
23,AAPAMSH,> 24

row,Substance,substrate phage enrichment score
1,PIYSPKS,1
2,IRTPGCR,> 22
3,NKSILTQ,2.12
4,AHLSTDG,> 26
5,STEMANP,2.45
6,TNLQSSW,19.5
7,RNRDLLI,> 26
8,TQTTTLQ,> 28
9,DRAAHHH,0.0976
10,NSSTTPR,0.667
11,HSELSFQ,4.83
12,PTESIKQ,0.234
13,RNTRIPT,> 34
14,CSDAHKP,1.75
15,LPHHGQQ,> 33
16,SATFHGQ,3.3
17,AALKHWQ,> 44
18,LMRPHII,3.67
19,LGRGTKF,> 21
20,TGVTDPL,2.11
21,WRPHIII,1.6
22,PSQGKCP,> 29
23,IRPHIII,0.802

row,Substance,substrate phage enrichment score
1,VNFPKSP,1.43
2,HNICDQR,1.33
3,TYRDPLP,> 21
4,SGSESLQ,0.273
5,KYSESRQ,0.12
6,HNVLQSG,> 28
7,EDVWVCR,4.4
8,TSESPGR,> 30
9,GERRNRD,> 25
10,EPQRKDG,3.6
11,PQTGPYA,> 28
12,CNAPQHF,3.83
13,RLHDLRR,3.6
14,AHATEAC,> 44
15,NESFQMT,5.2
16,PTSAAHH,> 21
17,IRSSQCT,> 30
18,CELITTS,2.25
19,LEQKLIS,18.5
20,AWPKLGC,> 43
21,IAGEVRS,0.132
22,WRSQDMK,0.286
23,TRTCTLQ,> 26

row,Substance,substrate phage enrichment score
1,PGGQRGC,> 87
2,CRRTLQW,2.27
3,NYGNLKQ,19.9
4,LRFFRRR,> 44
5,STVQPNS,2.88
6,KESVICG,7.95
7,TTKLQAS,> 110
8,HCQPGLM,> 27
9,RQTTRQH,> 36
10,RSFERLQ,> 78
11,TSGEKSC,4.83
12,MSQGGSA,10.5
13,EEQAARI,> 22
14,VEELGRS,8.57
15,AHFQGGS,2.95
16,DEVIRAT,2.14
17,AQTLKHH,> 26
18,AIRNSLC,5.5
19,TATIPQI,23
20,PHASCSL,> 47
21,VKHRGGR,> 26
22,DPTLTCP,7
23,PHTSRMT,> 27

row,Substance,substrate phage enrichment score
1,YKTRCQN,1.42
2,VYGCLMQ,> 28
3,HNRSNRE,> 28
4,TPTMCPR,3
5,ELRSCLC,1.49
6,SRDGSAA,> 23
7,GPRTNFQ,> 30
8,YTCPWRQ,0.421
9,CAPKSAR,6
10,YPDGSFK,3.47
11,LSSRLQS,> 164
12,SAAAQHQ,1.64
13,CIGVPKQ,0.56
14,VPSSCLQ,128
15,AKFQSCP,> 21
16,ESVELQA,> 68
17,TPGGEFN,5
18,TNLRMGP,1.89
19,SDKARTT,> 43
20,QAQQTAT,15
21,SCIENSR,> 24
22,LNPRTKP,> 22
23,LTPSVRM,> 22

row,Substance,substrate phage enrichment score
1,SQSNAAE,0.6
2,GHRQKHD,0.25
3,CQRNRSY,0.0833
4,SSGRHNR,0.714
5,ADHKMTS,0.353
6,AAECRHG,> 22
7,PVRAHLQ,> 47
8,IAATPSK,10.2
9,GSRVMLQ,> 32
10,SQGVKLQ,> 194
11,RQCKPVG,3.8
12,VPNELLK,> 24
13,PYLPTQP,> 35
14,RDVSSKG,> 21
15,RQDFQGG,7.88
16,RRNAEFY,> 31
17,EGTRCNN,19.7
18,ACGKTKV,6.17
19,VESLSAP,1.2
20,SAEPLRN,0.233
21,KETGATR,12
22,VHSSAYG,2.38
23,CNPLTRR,3.83

row,Substance,substrate phage enrichment score
1,DVGPENG,1.64
2,KTKMGRH,4.39
3,SPIEPQW,> 24
4,LLRDGCN,1
5,ISRLSYG,> 27
6,RTNPTSR,> 23
7,TSATILQ,> 44
8,TGEQGCT,> 47
9,SGQAQGQ,32
10,RQSSAQM,> 21
11,LSTTTQD,> 25
12,IQAAHHH,0.289
13,CPQANFQ,38.3
14,KTAAHHH,0.45
15,RVAPTRA,0.467
16,QLKPITD,23
17,LNGQEDH,> 29
18,QLSRPAV,0.667
19,PKAELKK,9
20,RKNAVLQ,> 276
21,STDWSTP,4.5
22,KEVQGPE,> 70
23,NRAPRLQ,> 195

row,Substance,substrate phage enrichment score
1,CNAWTKN,> 23
2,LDREAAH,> 22
3,ALTRPGQ,> 67
4,AETNCSR,2.07
5,HTMPNLQ,> 173
6,LPSGHSL,1.5
7,PCKFGWQ,> 36
8,KNSHCNV,3.07
9,TPRYVNQ,1.2
10,TERTTLQ,> 224
11,TKIPFYE,0.846
12,SPNRQNG,0.531
13,DTYTRMH,8.37
14,TLRRHPG,> 27
15,PGSCLKT,1.36
16,NAGHCWM,0.692
17,TEFTDSS,0.121
18,PETCRSM,10.8
19,ELNFQGG,2.5
20,ARHTELQ,71.5
21,MGSCVLH,32.5
22,GSNRPMH,10

# Reference: the supplement of paper PMC10185492
